This passage reports binding results from paper PMC10745200.

Protein sequences, listed by entry. Tags and fused reporters are not part of them.
UniProt P27361: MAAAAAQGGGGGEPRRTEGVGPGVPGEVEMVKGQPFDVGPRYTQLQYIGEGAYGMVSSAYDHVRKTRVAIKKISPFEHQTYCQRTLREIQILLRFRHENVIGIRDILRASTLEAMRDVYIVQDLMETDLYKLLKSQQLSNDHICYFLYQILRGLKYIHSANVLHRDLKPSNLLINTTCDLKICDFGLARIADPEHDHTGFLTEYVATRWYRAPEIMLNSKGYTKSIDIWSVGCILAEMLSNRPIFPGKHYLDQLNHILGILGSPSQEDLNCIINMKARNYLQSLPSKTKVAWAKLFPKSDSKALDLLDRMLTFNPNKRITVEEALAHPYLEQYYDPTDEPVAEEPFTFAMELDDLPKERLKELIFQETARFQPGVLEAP
UniProt P28482: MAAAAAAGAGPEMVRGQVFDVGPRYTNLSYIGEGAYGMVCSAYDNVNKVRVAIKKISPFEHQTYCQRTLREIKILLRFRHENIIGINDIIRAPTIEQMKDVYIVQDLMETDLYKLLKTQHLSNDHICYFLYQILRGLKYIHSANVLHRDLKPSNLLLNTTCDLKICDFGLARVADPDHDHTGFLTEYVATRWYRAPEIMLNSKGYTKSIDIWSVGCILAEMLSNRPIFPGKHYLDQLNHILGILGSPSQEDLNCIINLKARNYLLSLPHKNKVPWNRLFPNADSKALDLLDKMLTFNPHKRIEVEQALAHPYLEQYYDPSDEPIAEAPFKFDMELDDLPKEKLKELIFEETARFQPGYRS

Results are given in words; binding and its absence hold for the method and conditions named. Binding seen in cells or lysates may run through a third protein. Some binding calls cover weakened binding; strength is not graded here. For some assays here: Tags and fused reporters may be left off the sequences shown.

The target in one assay is T1, HA-FBXO3 wild-type (UniProt Q9UK99).
T1 sequence: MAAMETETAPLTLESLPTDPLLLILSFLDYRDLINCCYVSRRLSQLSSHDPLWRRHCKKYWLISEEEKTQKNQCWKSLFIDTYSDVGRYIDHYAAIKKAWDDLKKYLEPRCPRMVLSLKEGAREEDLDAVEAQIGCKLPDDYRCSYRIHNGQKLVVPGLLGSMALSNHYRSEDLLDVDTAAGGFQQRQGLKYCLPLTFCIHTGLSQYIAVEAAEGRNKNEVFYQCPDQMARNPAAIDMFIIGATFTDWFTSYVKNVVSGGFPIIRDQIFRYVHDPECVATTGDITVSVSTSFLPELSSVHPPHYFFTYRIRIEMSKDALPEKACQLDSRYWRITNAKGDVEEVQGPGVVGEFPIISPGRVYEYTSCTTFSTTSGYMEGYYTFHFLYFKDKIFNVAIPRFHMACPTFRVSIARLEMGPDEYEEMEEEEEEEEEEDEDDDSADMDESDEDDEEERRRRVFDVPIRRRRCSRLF
The assay is described as follows: co-IP; Fig 5L: HEK293T co-transfected with the indicated expressing plasmids; IP-western.

In a further assay the target is T2, Flag-USP4 (UniProt Q13107).
T2 sequence: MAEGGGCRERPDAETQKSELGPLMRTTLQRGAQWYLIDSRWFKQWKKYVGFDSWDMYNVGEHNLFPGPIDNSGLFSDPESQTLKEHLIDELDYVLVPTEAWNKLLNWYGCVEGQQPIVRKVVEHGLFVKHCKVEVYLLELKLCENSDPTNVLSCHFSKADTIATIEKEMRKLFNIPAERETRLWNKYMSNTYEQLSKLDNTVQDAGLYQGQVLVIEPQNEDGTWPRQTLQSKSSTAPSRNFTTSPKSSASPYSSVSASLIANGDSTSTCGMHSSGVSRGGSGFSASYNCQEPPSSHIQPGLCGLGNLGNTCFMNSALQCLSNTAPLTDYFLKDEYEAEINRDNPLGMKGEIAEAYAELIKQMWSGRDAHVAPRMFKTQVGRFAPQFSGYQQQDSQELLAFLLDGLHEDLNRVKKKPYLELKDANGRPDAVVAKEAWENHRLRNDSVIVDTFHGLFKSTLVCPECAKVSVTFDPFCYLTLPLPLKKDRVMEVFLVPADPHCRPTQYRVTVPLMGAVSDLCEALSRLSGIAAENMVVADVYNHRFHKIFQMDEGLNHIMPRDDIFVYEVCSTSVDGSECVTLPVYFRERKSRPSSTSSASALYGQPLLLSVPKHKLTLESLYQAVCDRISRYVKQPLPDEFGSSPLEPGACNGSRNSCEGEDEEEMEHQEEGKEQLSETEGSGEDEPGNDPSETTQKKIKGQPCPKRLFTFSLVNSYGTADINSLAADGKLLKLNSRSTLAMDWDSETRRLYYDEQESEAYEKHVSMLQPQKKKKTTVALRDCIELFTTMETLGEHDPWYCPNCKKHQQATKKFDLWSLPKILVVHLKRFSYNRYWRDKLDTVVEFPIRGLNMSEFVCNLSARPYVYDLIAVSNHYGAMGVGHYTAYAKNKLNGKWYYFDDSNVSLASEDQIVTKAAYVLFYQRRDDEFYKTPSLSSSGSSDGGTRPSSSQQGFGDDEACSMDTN
Briefly: co-IP; Fig 4F: HEK293T co-transfected with Flag-USP4 and HA-FBXO3, HA-FBXO3^ΔApaG, HA-FBXO3^ΔF or vector for 36 h, then 0.5 μm Tosedostat for 16 h; IP-western; FLAG/HA M2-conjugated agarose beads, 4°C overnight; which tag was precipitated is not told.

Assay [1] deals with T3, USP4 (endogenous, MDA-MB-231) (human (endogenous in MDA-MB-231)) (UniProt Q13107).
T3 sequence: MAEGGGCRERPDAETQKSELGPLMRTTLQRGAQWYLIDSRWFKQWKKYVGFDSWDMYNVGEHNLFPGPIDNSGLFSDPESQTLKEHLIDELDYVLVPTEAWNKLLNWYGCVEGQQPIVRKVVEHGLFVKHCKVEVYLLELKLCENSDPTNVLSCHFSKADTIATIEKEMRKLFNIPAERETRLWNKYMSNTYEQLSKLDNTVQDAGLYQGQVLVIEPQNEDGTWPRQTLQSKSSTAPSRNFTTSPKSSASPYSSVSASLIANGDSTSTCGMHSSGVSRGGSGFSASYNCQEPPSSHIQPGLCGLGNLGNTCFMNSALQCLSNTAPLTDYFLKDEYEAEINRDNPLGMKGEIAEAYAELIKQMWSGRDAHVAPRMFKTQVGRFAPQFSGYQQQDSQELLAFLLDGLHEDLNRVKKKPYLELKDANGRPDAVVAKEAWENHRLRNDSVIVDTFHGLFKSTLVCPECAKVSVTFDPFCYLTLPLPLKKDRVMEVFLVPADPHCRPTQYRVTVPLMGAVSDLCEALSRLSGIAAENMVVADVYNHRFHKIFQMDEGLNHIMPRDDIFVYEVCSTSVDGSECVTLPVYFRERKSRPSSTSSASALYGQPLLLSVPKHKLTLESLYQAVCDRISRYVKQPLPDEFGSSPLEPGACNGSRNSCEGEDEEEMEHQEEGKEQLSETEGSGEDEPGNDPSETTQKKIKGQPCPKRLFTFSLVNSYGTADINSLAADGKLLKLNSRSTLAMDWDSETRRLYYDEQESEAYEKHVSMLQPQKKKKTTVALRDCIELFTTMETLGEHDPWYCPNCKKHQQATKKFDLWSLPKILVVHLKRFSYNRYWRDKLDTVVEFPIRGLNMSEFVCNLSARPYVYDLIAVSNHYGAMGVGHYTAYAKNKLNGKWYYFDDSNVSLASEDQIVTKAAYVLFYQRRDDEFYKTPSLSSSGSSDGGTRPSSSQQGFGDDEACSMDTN
Briefly: co-IP; Fig 4G: MDA-MB-231 cells, endogenous proteins; IP-western with anti-FBXO3 or anti-USP4 antibody and Protein G Plus/Protein A agarose beads.

Assay [2] addresses T4, Flag-USP4 (stably expressed in MDA-MB-231) (UniProt Q13107).
T4 sequence: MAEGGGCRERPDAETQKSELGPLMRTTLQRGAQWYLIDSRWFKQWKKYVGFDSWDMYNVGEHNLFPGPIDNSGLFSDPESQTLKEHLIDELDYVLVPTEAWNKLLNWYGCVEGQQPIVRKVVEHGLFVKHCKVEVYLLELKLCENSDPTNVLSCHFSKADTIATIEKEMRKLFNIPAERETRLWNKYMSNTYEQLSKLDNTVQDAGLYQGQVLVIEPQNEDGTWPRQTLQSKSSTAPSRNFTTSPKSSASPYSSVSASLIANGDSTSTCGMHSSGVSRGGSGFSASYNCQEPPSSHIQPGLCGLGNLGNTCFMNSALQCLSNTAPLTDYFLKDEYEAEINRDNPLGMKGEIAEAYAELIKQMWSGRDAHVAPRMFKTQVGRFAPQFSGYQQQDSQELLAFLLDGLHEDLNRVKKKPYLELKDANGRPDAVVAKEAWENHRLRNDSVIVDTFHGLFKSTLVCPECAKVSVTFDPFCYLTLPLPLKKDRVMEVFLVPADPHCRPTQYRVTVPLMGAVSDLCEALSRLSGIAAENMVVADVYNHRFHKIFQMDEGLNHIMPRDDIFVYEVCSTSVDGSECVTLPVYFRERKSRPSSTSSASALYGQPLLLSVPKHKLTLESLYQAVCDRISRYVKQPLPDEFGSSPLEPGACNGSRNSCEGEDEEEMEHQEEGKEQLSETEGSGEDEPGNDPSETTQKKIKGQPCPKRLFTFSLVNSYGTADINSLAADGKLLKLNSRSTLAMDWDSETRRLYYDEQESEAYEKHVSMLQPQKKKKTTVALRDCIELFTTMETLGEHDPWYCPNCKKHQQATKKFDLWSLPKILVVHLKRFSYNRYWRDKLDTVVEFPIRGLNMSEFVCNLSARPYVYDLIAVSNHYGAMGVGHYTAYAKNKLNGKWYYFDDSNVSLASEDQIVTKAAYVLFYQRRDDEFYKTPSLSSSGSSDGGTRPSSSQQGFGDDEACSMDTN
The assay is described as follows: co-IP; Fig 4H: MDA-MB-231 cells stably expressing Flag-USP4, infected with lentivirus expressing HA-FBXO3 or a vector control; 0.5 μm Tosedostat for 16 h; IP-western.

For “ERK1 (from UniProt P27361 1-379) (enzyme)”, the binding entry with HA-FBXO3 wild-type is on record as “binds”.

For “ERK2 (from UniProt P28482 1-360) (enzyme)”, the binding result in the assay with HA-FBXO3 wild-type is “no binding”.

B1: HA-FBXO3 wild-type (protein, UniProt Q9UK99 1-471)
chain: MAAMETETAPLTLESLPTDPLLLILSFLDYRDLINCCYVSRRLSQLSSHDPLWRRHCKKYWLISEEEKTQKNQCWKSLFIDTYSDVGRYIDHYAAIKKAWDDLKKYLEPRCPRMVLSLKEGAREEDLDAVEAQIGCKLPDDYRCSYRIHNGQKLVVPGLLGSMALSNHYRSEDLLDVDTAAGGFQQRQGLKYCLPLTFCIHTGLSQYIAVEAAEGRNKNEVFYQCPDQMARNPAAIDMFIIGATFTDWFTSYVKNVVSGGFPIIRDQIFRYVHDPECVATTGDITVSVSTSFLPELSSVHPPHYFFTYRIRIEMSKDALPEKACQLDSRYWRITNAKGDVEEVQGPGVVGEFPIISPGRVYEYTSCTTFSTTSGYMEGYYTFHFLYFKDKIFNVAIPRFHMACPTFRVSIARLEMGPDEYEEMEEEEEEEEEEDEDDDSADMDESDEDDEEERRRRVFDVPIRRRRCSRLF
As to B1, in the assay with Flag-USP4, the binding entry is recorded as “binds”.

B2: FBXO3 (endogenous, MDA-MB-231) (protein, UniProt Q9UK99 1-471)
chain: MAAMETETAPLTLESLPTDPLLLILSFLDYRDLINCCYVSRRLSQLSSHDPLWRRHCKKYWLISEEEKTQKNQCWKSLFIDTYSDVGRYIDHYAAIKKAWDDLKKYLEPRCPRMVLSLKEGAREEDLDAVEAQIGCKLPDDYRCSYRIHNGQKLVVPGLLGSMALSNHYRSEDLLDVDTAAGGFQQRQGLKYCLPLTFCIHTGLSQYIAVEAAEGRNKNEVFYQCPDQMARNPAAIDMFIIGATFTDWFTSYVKNVVSGGFPIIRDQIFRYVHDPECVATTGDITVSVSTSFLPELSSVHPPHYFFTYRIRIEMSKDALPEKACQLDSRYWRITNAKGDVEEVQGPGVVGEFPIISPGRVYEYTSCTTFSTTSGYMEGYYTFHFLYFKDKIFNVAIPRFHMACPTFRVSIARLEMGPDEYEEMEEEEEEEEEEDEDDDSADMDESDEDDEEERRRRVFDVPIRRRRCSRLF
On to B2, for which the binding entry in assay [1] is reported as “binds”.

B3: HA-FBXO3 (lentiviral, in MDA-MB-231) (protein, UniProt Q9UK99 1-471)
chain: MAAMETETAPLTLESLPTDPLLLILSFLDYRDLINCCYVSRRLSQLSSHDPLWRRHCKKYWLISEEEKTQKNQCWKSLFIDTYSDVGRYIDHYAAIKKAWDDLKKYLEPRCPRMVLSLKEGAREEDLDAVEAQIGCKLPDDYRCSYRIHNGQKLVVPGLLGSMALSNHYRSEDLLDVDTAAGGFQQRQGLKYCLPLTFCIHTGLSQYIAVEAAEGRNKNEVFYQCPDQMARNPAAIDMFIIGATFTDWFTSYVKNVVSGGFPIIRDQIFRYVHDPECVATTGDITVSVSTSFLPELSSVHPPHYFFTYRIRIEMSKDALPEKACQLDSRYWRITNAKGDVEEVQGPGVVGEFPIISPGRVYEYTSCTTFSTTSGYMEGYYTFHFLYFKDKIFNVAIPRFHMACPTFRVSIARLEMGPDEYEEMEEEEEEEEEEDEDDDSADMDESDEDDEEERRRRVFDVPIRRRRCSRLF
Take B3: the binding result in assay [2] is “binds”.
